Measurements as given in the supplement of paper PMC3334620.
The full ranking holds about 33,000 sequences; the median of “E-score (-0.5 to 0.5)” is about -0.036, and the highest 2% start at about 0.37. The list shows a part of the results.

target: T1, Yer064c (UniProt P40041); assay: PBM E-score (8-mer binding enrichment) (E-score (-0.5 to 0.5)); higher = stronger / more preferred TF binding; most listed sequences are background and not binding sites; settings: protein concentration: 200 nM; construct: GST-full length
T1 sequence: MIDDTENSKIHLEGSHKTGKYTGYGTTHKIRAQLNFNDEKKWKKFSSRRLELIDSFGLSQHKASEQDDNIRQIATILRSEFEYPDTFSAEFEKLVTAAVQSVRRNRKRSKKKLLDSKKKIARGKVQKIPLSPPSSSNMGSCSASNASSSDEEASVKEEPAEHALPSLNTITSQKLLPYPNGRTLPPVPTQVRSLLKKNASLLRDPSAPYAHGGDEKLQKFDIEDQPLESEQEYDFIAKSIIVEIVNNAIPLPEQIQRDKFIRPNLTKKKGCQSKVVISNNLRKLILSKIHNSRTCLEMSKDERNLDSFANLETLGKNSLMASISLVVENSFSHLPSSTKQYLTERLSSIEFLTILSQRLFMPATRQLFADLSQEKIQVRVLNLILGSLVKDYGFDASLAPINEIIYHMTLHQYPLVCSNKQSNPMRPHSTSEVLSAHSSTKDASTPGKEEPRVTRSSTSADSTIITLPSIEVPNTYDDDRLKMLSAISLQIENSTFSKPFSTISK
Outline: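 Yeast transcription factors, full-length or as DNA-binding domains, were expressed with a GST tag using PURExpress in vitro transcription/translation. At about 100-200 nM they were applied to universal all-10-mer Agilent arrays, double-stranded by primer extension on fresh or once-stripped slides. Fluorescent anti-GST detected bound protein, and masliner normalised the scans. E-scores for ungapped eight-base words, pooled with reverse complements, came from the Universal PBM Analysis Suite.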

Sequence | PBM E-score
GATCATCA | 0.142
ATCGATCA | 0.123
TCACCTGA | 0.232
ACAGAAGT | 0.0649
GCCAGCCC | -0.326
CCATGGAC | -0.107
CCGTAAAC | -0.0692
ATGTGGGA | -0.042
GAACATTC | -0.103
GCTGTACA | -0.259
AATTTGCG | -0.174
CGAGGGTC | -0.388
CTTGACAA | 0.113
GAGGCGAA | -0.0509
GGCCTGAC | 0.109
ACATTAGG | -0.143
ATTCTTTC | 0.0902
GAGCGAGA | 0.103
AAGCTCGT | -0.0762
GACAAGCA | -0.235
CACTGGAA | -0.0741
ACTGGAAA | 0.0907
ACTCGTGC | 0.2
GAAGTTTA | 0.0547
AGTCGGCG | 0.299

Sequence | PBM E-score
GAGGGATC | -0.255
GACGACTC | 0.442
CCCAACGA | -0.0153
ACCTTAGT | 0.318
CCAACGCA | -0.0399
TAAGCAGA | -0.0155
AGACCTCA | 0.0211
AGGACTCA | 0.468
AACCTGAC | 0.216
ACCTGCGG | -0.208
CGCATGCC | -0.184
CACGATCA | 0.0855
AGGTACTC | 0.182
ATGGCTCA | 0.422
AATGTCCT | -0.244
AGCTGAAA | 0.0156
GTAGGCCA | -0.193
CAGTGGCG | -0.0546
AGATGCTC | -0.12
ACGTGTTG | 0.0745
CGTCCCAG | -0.19
CGACATAA | 0.047
GAAGTTGC | -0.185
AGCTATAC | -0.119
ACCGATGG | 0.0577

Sequence | PBM E-score
CTCGCAGC | 0.131
GATAACAA | -0.0444
GATGGCCC | -0.305
GAAGACTA | 0.444
GCTACTTA | 0.033
ATGGCGTA | -0.226
ACTAACGG | 0.211
CGCTCGAG | 0.0385
AGGGTGGC | 0.00884
CATGGTGA | 0.142
GCGTCCCC | -0.379
CTACTCCA | -0.0727
GACTGAGA | 0.33
ACTCGCCT | 0.144
ACCGACCT | -0.234
CCCTAGTA | -0.167
CTCCACGC | -0.0833
CTACCTAA | 0.0677
GACTCTGC | 0.376
GGAATGTA | -0.112
AAAACTAC | -0.00325
AGCTGGAC | 0.0573
AAAAGGAA | -0.053
GGGCCAAC | -0.29
CTTTGGCA | -0.0822

Sequence | PBM E-score
AACAGGAT | -0.262
CCAATGTC | -0.242
ACCGGACC | -0.151
CCCAGGGC | -0.275
GGTCAAAA | 0.0441
CATGGCTC | 0.337
CATGTGAA | -0.0895
CTCCAGAG | -0.0855
GTGACATA | -0.0541
AGGACTGG | 0.15
CCTCCTAG | -0.0737
GGGTGTAA | -0.0653
AATTCAAA | 0.139
ACCAAGGG | -0.0519
AGGGTGCC | -0.213
GGTCGCGA | 0.0568
ATAGTCAA | 0.402
ACGGACAT | -0.206
CACAAAGG | -0.149
AGCAGACA | -0.132
CCACAGCC | -0.0922
CCCAGTCC | -0.101
CCCACTGA | -0.0994
ATCACAAT | 0.232
CACGGAAA | 0.0316

Sequence | PBM E-score
GAGTCCGC | 0.316
TAGATGGA | -0.0694
GTAGAATA | -0.0286
GGACGCAC | 0.0055
ACGTGACG | -0.176
CTAGCAAC | -0.125
TCCACGCA | -0.0968
ACACGAAT | 0.119
GTATCGGA | -0.146
CAGCTCGG | -0.142
AACCTAAT | 0.0306
AAGCCAGA | -0.166
CTGCCTGA | 0.225
AATATGAA | 0.0906
ATTCCGCG | -0.123
ACTACCGA | 0.0041
GCGCCCGA | -0.0477
GTTACTTA | 0.163
AGTTTTAG | -0.0362
AAGACGCA | -0.148
TAGCGACA | -0.00348
CACCAGAG | -0.0446
AAATAAGG | -0.161
AGCTCCAC | -0.153
ACACGATG | 0.00339

Sequence | PBM E-score
AGGAAGAC | 0.207
ACGCCTCA | -0.179
ATCGGCGC | -0.173
GCATTAAC | -0.00264
GGTATAAC | -0.212
TCGGGGCA | -0.111
TCATCGGA | 0.15
CCAGAAGG | -0.0483
GTGCTTAA | -0.0711
ATCGTCAC | -0.00908
TAGGATAA | -0.0189
CGCTAACC | -0.19
ACATTTTC | 0.0783
GACCTCCC | -0.235
GGACATGA | -0.041
ATCCTAAA | -0.0812
GCAAGTCA | 0.361
ACTGACAA | 0.182
ACAACTAA | 0.0714
ACCTAATA | -0.0735
GATGAGAC | 0.257
CTTACTAA | 0.219
CGCGAAAG | -0.0469
CGGGTCAG | 0.0663
GCTCACCC | -0.0459

Sequence | PBM E-score
CTGCCTTC | -0.176
AAGCCCAT | 0.00868
AAGGCCAA | -0.214
AACATCAT | 0.12
AGACCTAT | -0.108
CCTATTGA | 0.0204
CCATGGCC | -0.324
CATCCAGC | 0.0141
GGCGGAAC | -0.0205
AGGCGTCC | -0.227
GAGCTAGA | -0.331
AACAAAAG | -0.0416
CCCTGAAC | -0.00543
GACTCTTA | 0.428
CTCTGAGA | -0.00343
ACAATCAT | 0.385
AGTGAATG | 0.0208
AAGCGAAG | -0.0548
ATGTCTTG | -0.113
TACGATCA | -0.0795
GCGCAAGA | 0.0992
ATAGCGCA | -0.106
